Experimental data from the supplement of paper PMC9174493.
This is one part of the list. Single values of this set are uncertain. Values with irradiation are relative to irradiated vehicle.

Key:
[1] = system: A549-Dual; assay: NF-kB reporter (SEAP) activity, viability-corrected, relative to vehicle (fold change vs vehicle); higher = more activation of STING-IRF / NF-kB immune response reporter
[2] = system: A549-Dual; assay: ISRE reporter (Lucia luciferase) activity, viability-corrected, relative to vehicle (fold change vs vehicle); higher = more activation of STING-IRF / NF-kB immune response reporter
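For NF-kB reporter (SEAP) activity, viability-corrected, relative to vehicle in this document: viability correction based on the alamar blue assay, with concentrations leaving 10% survival or less dropped.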

SMILES | NF-kB reporter ([1]; 0.1 µM, irradiation: 8 Gy/4 fr) | NF-kB reporter ([1]; 0.1 µM, irradiation: none) | NF-kB reporter ([1]; 0.3 µM, irradiation: 8 Gy/4 fr) | NF-kB reporter ([1]; 0.3 µM, irradiation: none) | NF-kB reporter ([1]; 1 µM, irradiation: 8 Gy/4 fr) | NF-kB reporter ([1]; 1 µM, irradiation: none) | NF-kB reporter ([1]; 3 µM, irradiation: 8 Gy/4 fr) | NF-kB reporter ([1]; 3 µM, irradiation: none) | NF-kB reporter ([1]; 10 µM, irradiation: 8 Gy/4 fr) | NF-kB reporter ([1]; 10 µM, irradiation: none) | ISRE reporter ([2]; 0.1 µM, irradiation: 8 Gy/4 fr) | ISRE reporter ([2]; 0.1 µM, irradiation: none) | ISRE reporter ([2]; 0.3 µM, irradiation: 8 Gy/4 fr) | ISRE reporter ([2]; 0.3 µM, irradiation: none) | ISRE reporter ([2]; 1 µM, irradiation: 8 Gy/4 fr) | ISRE reporter ([2]; 1 µM, irradiation: none) | ISRE reporter ([2]; 3 µM, irradiation: 8 Gy/4 fr) | ISRE reporter ([2]; 3 µM, irradiation: none) | ISRE reporter ([2]; 10 µM, irradiation: 8 Gy/4 fr) | ISRE reporter ([2]; 10 µM, irradiation: none)
CC(=O)O.CC(C)CC(NC(=O)CNC(=O)C(Cc1ccc(O)cc1)NC(=O)C(CO)NC(=O)C(Cc1c[nH]c2ccccc12)NC(=O)C(Cc1cnc[nH]1)NC(=O)C1CCC(=O)N1)C(=O)NC(CCCNC(=N)N)C(=O)N1CCCC1C(=O)NCC(N)=O (stereo not given) [Gonadorelin Acetate] | 0.816 | 0.879 | 0.741 | 0.995 | 0.826 | 1.24 | 0.737 | 1.1 | 0.869 | 0.845 | 0.919 | 1.21 | 0.925 | 0.952 | 0.991 | 0.917 | 0.877 | 0.924 | 1 | 0.862
Nc1nc(CC(=O)Nc2ccc(CCNCC(O)c3ccccc3)cc2)cs1 (stereo not given) [Mirabegron] | 1.02 | 1.01 | 0.877 | 0.88 | 0.906 | 0.891 | 0.862 | 1.01 | 1.05 | 0.967 | 1.08 | 1.02 | 0.998 | 0.896 | 0.979 | 1.02 | 1.04 | 0.841 | 1.1 | 1.03
CCCCC1C(=O)N(c2ccccc2)N(c2ccccc2)C1=O [Phenylbutazone] | 1.11 | 1.12 | 1.18 | 1.08 | 0.868 | 1.08 | 1.07 | 0.838 | 1.13 | 0.907 | 0.954 | 0.962 | 1.44 | 1.13 | 0.972 | 0.915 | 1.04 | 0.552 | 1 | 0.746
CC(CCC(=O)NCCS(=O)(=O)O)C1CCC2C3C(O)CC4CC(O)CCC4(C)C3CCC12C (stereo not given) [Tauroursodeoxycholic Acid (TUDCA)] | 1.04 | 1.44 | 1.18 | 1.82 | 1.4 | 0.943 | 1.39 | 1.04 | 1.29 | 1.05 | 1.07 | 0.844 | 1.02 | 1.16 | 0.927 | 0.925 | 0.98 | 1.05 | 0.842 | 0.851
CC(C)Cc1ccc(C(C)C(=O)O)cc1 (stereo not given) [Ibuprofen] | 0.956 | 1.36 | 1.09 | 1.52 | 1.59 | 1.06 | 1.59 | 1.02 | 1.38 | 0.869 | 1.04 | 1.1 | 0.886 | 0.904 | 0.973 | 1.07 | 0.917 | 1.08 | 0.907 | 0.986
O=C(O)CCC(=O)c1ccc(-c2ccccc2)cc1 [Fenbufen] | 0.954 | 0.86 | 0.983 | 0.648 | 1.18 | 0.872 | 1.06 | 0.827 | 0.897 | 0.927 | 0.934 | 0.686 | 0.786 | 0.592 | 0.733 | 0.667 | 0.74 | 0.934 | 0.991 | 0.979
